Experimental data reported in patent US9393247B2, “Heteroaryl derivatives as alpha7 nAChR modulators” (Lupin Limited, priority 2011, dated 2016).
Some of these results come from one statement about several compounds together.

Biological target: T1, α7nAChR (Homo sapiens, UniProt P36544)
T1 construct: human IMR-32 cells with native expression of α7nAChR; endogenous in cells; host or cells: IMR-32 (human neuroblastoma)
Assay: Cell-based real-time kinetic FLIPR Ca2+ assay, potentiation of agonist response (fold PAM activity)
Conditions: 1 μM test compound, fold increase in response to agonist PNU-282987 (10 μM), human IMR-32 cells with native α7nAChR, intracellular Ca2+

T1 sequence (P36544 23-502): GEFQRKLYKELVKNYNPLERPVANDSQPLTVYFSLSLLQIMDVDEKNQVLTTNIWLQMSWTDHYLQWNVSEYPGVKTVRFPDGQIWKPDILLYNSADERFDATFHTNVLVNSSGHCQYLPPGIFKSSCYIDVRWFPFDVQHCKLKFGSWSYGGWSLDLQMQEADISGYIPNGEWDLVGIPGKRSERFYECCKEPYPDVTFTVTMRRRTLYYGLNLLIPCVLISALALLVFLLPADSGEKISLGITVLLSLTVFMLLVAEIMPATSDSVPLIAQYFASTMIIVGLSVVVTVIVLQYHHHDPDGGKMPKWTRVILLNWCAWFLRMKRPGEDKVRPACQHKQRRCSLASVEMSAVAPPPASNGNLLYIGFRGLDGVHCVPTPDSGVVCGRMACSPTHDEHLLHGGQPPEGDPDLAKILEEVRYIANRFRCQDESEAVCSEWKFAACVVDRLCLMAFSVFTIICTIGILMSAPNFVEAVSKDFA

| Structure (SMILES) | Fold activation at 1 μM conc. (Group) |
| --- | --- |
| CCC(=O)c1sc(-c2ccc(Cl)cc2)c(C)c1-c1ccc(S(N)(=O)=O)cc1 [Compound 1, 4-(5-(4-chlorophenyl)-4-methyl-2-propionylthiophen-3-yl)benzenesulfonamide] | C (the compounds with activity above 15 folds are grouped as C) |
| CCC(=O)c1sc(-c2ccccc2Cl)c(C)c1-c1ccc(S(N)(=O)=O)cc1 [Compound 2, 4-(5-(2-Chlorophenyl)-4-methyl-2-propionylthiophen-3-yl)benzenesulfonamide] | A (compounds with activity below 5 folds are grouped as A) |
| CCC(=O)c1sc(-c2cccc(Cl)c2)c(C)c1-c1ccc(S(N)(=O)=O)cc1 [Compound 3, 4-(5-(3-Chlorophenyl)-4-methyl-2-propionylthiophen-3-yl)benzenesulfonamide] | A (compounds with activity below 5 folds are grouped as A) |
| CCC(=O)c1sc(-c2ccc(F)cc2)c(C)c1-c1ccc(S(N)(=O)=O)cc1 [Compound 4, 4-(5-(4-Fluorophenyl)-4-methyl-2-propionylthiophen-3-yl)benzenesulfonamide] | B (the compounds with activity between 5.1 folds and 15 folds are grouped as B) |
| CCC(=O)c1sc(-c2ccc(C3CC3)cc2)c(C)c1-c1ccc(S(N)(=O)=O)cc1 [Compound 5, 4-(5-(4-cyclopropylphenyl)-4-methyl-2-propionylthiophen-3-yl)benzenesulfonamide] | B (the compounds with activity between 5.1 folds and 15 folds are grouped as B) |
| CCC(=O)c1sc(-c2ccc(C(F)(F)F)cc2)c(C)c1-c1ccc(S(N)(=O)=O)cc1 [Compound 6, 4-(4-methyl-2-propionyl-5-(4-(trifluoromethyl)phenyl)thiophen-3-yl)benzenesulfonamide] | C (the compounds with activity above 15 folds are grouped as C) |
| CCC(=O)c1sc(-c2ccc(OC)cc2)c(C)c1-c1ccc(S(N)(=O)=O)cc1 [Compound 7, 4-(5-(4-methoxyphenyl)-4-methyl-2-propionylthiophen-3-yl)benzenesulfonamide] | C (the compounds with activity above 15 folds are grouped as C) |
| CCOc1ccc(-c2sc(C(=O)CC)c(-c3ccc(S(N)(=O)=O)cc3)c2C)cc1 [Compound 8, 4-(5-(4-Ethoxyphenyl)-4-methyl-2-propionylthiophen-3-yl)benzenesulfonamide] | B (the compounds with activity between 5.1 folds and 15 folds are grouped as B) |
| CCC(=O)c1sc(-c2ccc(OC(F)(F)F)cc2)c(C)c1-c1ccc(S(N)(=O)=O)cc1 [Compound 9, 4-(4-methyl-2-propionyl-5-(4-(trifluoromethoxy)phenyl)thiophen-3-yl)benzenesulfonamide] | B (the compounds with activity between 5.1 folds and 15 folds are grouped as B) |
| CCC(=O)c1sc(-c2ccc(C)cc2)c(C)c1-c1ccc(S(N)(=O)=O)cc1 [Compound 10, 4-(4-methyl-2-propionyl-5-(4-tolyl)thiophen-3-yl)benzenesulfonamide] | C (the compounds with activity above 15 folds are grouped as C) |
| CCC(=O)c1sc(-c2ccc(C(C)(C)C)cc2)c(C)c1-c1ccc(S(N)(=O)=O)cc1 [Compound 11, 4-(5-((4-tertbutyl)phenyl)-4-methyl-2-propionylthiophen-3-yl)benzene sulfonamide] | A (compounds with activity below 5 folds are grouped as A) |
| CCC(=O)c1sc(-c2cccc(F)c2)c(C)c1-c1ccc(S(N)(=O)=O)cc1 [Compound 13, 4-(5-(3-Fluorophenyl)-4-methyl-2-propionylthiophen-3-yl)benzenesulfonamide] | A (compounds with activity below 5 folds are grouped as A) |
| CCC(=O)c1sc(-c2ccccc2)c(C)c1-c1ccc(S(N)(=O)=O)cc1 [Compound 14, 4-(4-methyl-5-phenyl-2-propionylthiophen-3-yl)benzenesulfonamide] | A (compounds with activity below 5 folds are grouped as A) |
